Experimental data published in US20100222401A1, “COMPOSITIONS AND METHODS FOR TREATING PATHOLOGIC ANGIOGENESIS AND VASCULAR PERMEABILITY” (priority 2008, published 2010).

Experiments:
Robo4 and paxillin = target: T1, Robo4 and paxillin (Mus musculus, UniProt Q8C310); test: Robo4 immunoprecipitation, detection of endogenous paxillin; assay type: cell-based; details: HEK 293 cells expressing Robo4, presence versus absence of Slit2
T1 construct: HEK 293 cells were transfected with full length Robo4-HA and paxillin-V5, and stimulated with Slit2 for 5 minutes; expressed in transfected cells; host or cells: HEK 293

Cdc42 = Cdc42 activation assay, HEK 293 cells expressing Robo4; assay type: cell-based, human; details: HEK 293 cells expressing Robo4, exposure to Slit2
[1] = tested on: HEK 293 cells expressing Robo4; test: Haptotaxis migration assay, transfected HEK 293 cells; assay type: cell-based, human
[2] = tested on: bovine aortic endothelial (BAE) cells; assay type: cell-based
Rac = Rac activation assay (GST-PBD pull down), HEK 293 cells expressing Robo4; assay type: cell-based, human; details: HEK 293 cells expressing Robo4 on fibronectin and Slit2, versus pcDNA3

T1 sequence (Q8C310 28-1012): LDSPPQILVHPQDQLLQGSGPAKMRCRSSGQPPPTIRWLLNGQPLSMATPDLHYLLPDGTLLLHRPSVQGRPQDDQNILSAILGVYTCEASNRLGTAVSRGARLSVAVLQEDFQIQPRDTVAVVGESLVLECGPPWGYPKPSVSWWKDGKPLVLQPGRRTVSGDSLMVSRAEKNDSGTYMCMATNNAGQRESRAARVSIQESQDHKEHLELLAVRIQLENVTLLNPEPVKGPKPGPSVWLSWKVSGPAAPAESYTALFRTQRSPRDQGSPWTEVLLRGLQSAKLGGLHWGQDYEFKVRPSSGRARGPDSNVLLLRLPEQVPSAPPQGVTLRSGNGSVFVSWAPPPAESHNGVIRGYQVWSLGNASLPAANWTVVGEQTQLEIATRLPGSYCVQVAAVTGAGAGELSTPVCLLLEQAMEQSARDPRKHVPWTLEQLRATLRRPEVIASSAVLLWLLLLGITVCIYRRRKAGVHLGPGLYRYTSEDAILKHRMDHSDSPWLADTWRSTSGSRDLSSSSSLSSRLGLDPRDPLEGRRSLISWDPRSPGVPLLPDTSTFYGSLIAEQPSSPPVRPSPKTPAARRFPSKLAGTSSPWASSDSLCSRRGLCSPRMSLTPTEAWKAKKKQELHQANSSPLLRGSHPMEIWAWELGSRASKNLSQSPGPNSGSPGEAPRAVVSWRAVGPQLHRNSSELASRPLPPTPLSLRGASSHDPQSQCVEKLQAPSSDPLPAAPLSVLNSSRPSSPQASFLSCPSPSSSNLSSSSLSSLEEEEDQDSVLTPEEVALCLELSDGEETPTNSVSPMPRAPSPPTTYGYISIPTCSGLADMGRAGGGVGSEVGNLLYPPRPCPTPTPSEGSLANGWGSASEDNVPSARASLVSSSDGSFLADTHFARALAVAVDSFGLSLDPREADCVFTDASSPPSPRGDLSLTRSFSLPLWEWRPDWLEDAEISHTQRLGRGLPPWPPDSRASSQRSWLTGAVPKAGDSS
T1 sequence (P49023 whole entry partner): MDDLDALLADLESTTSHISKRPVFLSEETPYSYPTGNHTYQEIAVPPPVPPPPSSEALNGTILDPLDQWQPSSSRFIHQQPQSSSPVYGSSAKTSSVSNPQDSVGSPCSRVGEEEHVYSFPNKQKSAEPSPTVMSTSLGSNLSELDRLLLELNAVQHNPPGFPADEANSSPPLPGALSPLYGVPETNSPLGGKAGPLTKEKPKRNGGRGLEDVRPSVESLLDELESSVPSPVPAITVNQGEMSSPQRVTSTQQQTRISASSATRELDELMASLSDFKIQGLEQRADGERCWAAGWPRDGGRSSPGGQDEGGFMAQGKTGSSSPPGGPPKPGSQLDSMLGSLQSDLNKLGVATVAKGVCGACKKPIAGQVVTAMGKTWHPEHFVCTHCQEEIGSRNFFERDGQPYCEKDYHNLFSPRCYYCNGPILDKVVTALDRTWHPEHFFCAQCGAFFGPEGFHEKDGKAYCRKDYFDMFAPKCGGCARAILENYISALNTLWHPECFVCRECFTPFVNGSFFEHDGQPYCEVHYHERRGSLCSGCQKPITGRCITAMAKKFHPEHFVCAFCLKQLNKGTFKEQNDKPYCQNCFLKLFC

B1: Slit2N (protein)
chain: QACPAQCSCSGSTVDCHGLALRSVPRNIPRNTERLDLNGNNITRITKTDFAGLRHLRVLQLMENKISTIERGAFQDLKELERLRLNRNHLQLFPELLFLGTAKLYRLDLSENQIQAIPRKAFRGAVDIKNLQLDYNQISCIEDGAFRALRDLEVLTLNNNNITRLSVASFNHMPKLRTFRLHSNNLYCDCHLAWLSDWLRQRPRVGLYTQCMGPSHLRGHNVAEVQKREFVCSGHQSFMAPSCSVLHCPAACTCSNNIVDCRGKGLTEIPTNLPETITEIRLEQNTIKVIPPGAFSPYKKLRRIDLSNNQISELAPDAFQGLRSLNSLVLYGNKITELPKSLFEGLFSLQLLLLNANKINCLRVDAFQDLHNLNLLSLYDNKLQTIAKGTFSPLRAIQTMHLAQNPFICDCHLKWLADYLHTNPIETSGARCTSPRRLANKRIGQIKSKKFRCSAKEQYFIPGTEDYRSKLSGDCFADLACPEKCRCEGTTVDCSNQKLNKIPEHIPQYTAELRLNNNEFTVLEATGIFKKLPQLRKINFSNNKITDIEEGAFEGASGVNEILLTSNRLENVQHKMFKGLESLKTLMLRSNRITCVGNDSFIGLSSVRLLSLYDNQITTVAPGAFDTLHSLSTLNLLANPFNCNCYLAWLGEWLRKKRIVTGNPRCQKPYFLKEIPIQDVAIQDFTCDDGNDDNSCSPLSRCPTECTCLDTVVRCSNKGLKVLPKGIPRDVTELYLDGNQFTLVPKELSNYKHLTLIDLSNNRISTLSNQSFSNMTQLLTLILSYNRLRCIPPRTFDGLKSLRLLSLHGNDISVVPEGAFNDLSALSHLAIGANPLYCDCNMQWLSDWVKSEYKEPGIARCAGPGEMADKLLLTTPSKKFTCQGPVDVNILAKCNPCLSNPCKNDGTCNSDPVDFYRCTCPYGFKGQDCDVPIHACISNPCKHGGTCHLKEGEEDGFWCICADGFEGENCEVNVDDCEDNDCENNSTCVDGINNYTCLCPPEYTGELCEEKLDFCAQDLNPCQHDSKCILTPKGFKCDCTPGYVGEHCDIDFDDCQDNKCKNGAHCTDAVNGYTCICPEGYSGLFCEFSPP
Q: Which results are given for B1?
A: association of Robo4 with paxillin (Robo4 and paxillin): stimulated; Cdc42 activation (Cdc42): unaltered; Fibronectin-dependent migration (haptotaxis) ([1]; HEK 293 cells expressing Robo4-NH2): inhibited; fibronectin-induced migration (haptotaxis) ([1]; HEK 293 cells expressing Robo4, membranes coated with fibronectin and Slit2): inhibited; cell spreading [2]: reduced spreading; adhesion-stimulated Rac activation (Rac): significantly less
